# Experimental data as given in the supplement of paper PMC10037445.
# Over roughly 2,900 compounds, “NF-kB SEAP reporter activity, fold change vs agonist alone” has its median near 0.99; the highest 2% begin near 2.6. The list shows a part of the results.
# Experiments:
# RAW-Dual [1] = assay: NF-kB SEAP reporter activity, fold change vs agonist alone; cytotoxicity flag (confluency mask): not cytotoxic; higher = enhanced NF-kB activity
# Method in brief: (§1)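 Library stock was pin-tooled at 50 nL into 384-well plates of RAW-Dual macrophages (50,000 cells/well, DMEM), followed 1 h later by a PRR agonist, and the cells were kept at 37 °C, 5% CO2. Supernatant collected after 20 hours was read for IRF by QuantiLuc luminescence and for NF-κB by QuantiBlue absorbance at 620 nm. Reporter activity is fold change over agonist-alone wells, and a well counted as cytotoxic when its IncuCyte confluency was below 70% of agonist controls in both mask sets.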
# RAW-Dual [2] = assay: NF-kB SEAP reporter activity, fold change vs agonist alone; higher = enhanced NF-kB activity
# Method in brief: as §1
# RAW-Dual [3] = assay: NF-kB SEAP reporter activity, fold change vs agonist alone; cytotoxicity flag (confluency mask): cytotoxic (confluency <70% of control); higher = enhanced NF-kB activity
# Method in brief: as §1
# [4] = agonist: ODN 1826 (TLR9) 0.5 ug/mL
# [5] = agonist: Pam2CSK4 (TLR2/6) 0.1 ug/mL
# [6] = agonist: Pam3CSK4 (TLR2/1) 0.1 ug/mL
# [7] = library stock concentration (final ~1000-fold dilution): 10 mM, cytotoxicity flag (confluency mask): not cytotoxic, agonist: Imiquimod (TLR7) […]
# [8] = library stock concentration (final ~1000-fold dilution): 10 mM, cytotoxicity flag (confluency mask): not cytotoxic, agonist: MPLA (TLR4) […]
# [9] = library stock concentration (final ~1000-fold dilution): 10 mM, cytotoxicity flag (confluency mask): cytotoxic (confluency <70% of control), agonist: Imiquimod (TLR7) […]
# [10] = library stock concentration (final ~1000-fold dilution): 10 mM, cytotoxicity flag (confluency mask): cytotoxic (confluency <70% of control), agonist: MPLA (TLR4) […]
smiles,measurement,setting,value
CC(=O)N1c2ccc(-c3ccc(C(=O)O)cc3)cc2C(Nc2ccc(Cl)cc2)CC1C (centres undefined) (library stock concentration (final ~1000-fold dilution): 10 mM),NF-kB SEAP reporter activity,RAW-Dual [1]; agonist: LPS (TLR4) 0.1 ug/mL,4.2
CC1Cc2c([nH]c3ccccc23)C(c2c(F)cc(/C=C/C(=O)O)cc2F)N1CC(C)(C)F (centres undefined) (library stock concentration (final ~1000-fold dilution): 10 mM),NF-kB SEAP reporter activity,RAW-Dual [1]; agonist: LPS (TLR4) 0.1 ug/mL,0.59
same,NF-kB SEAP reporter activity,RAW-Dual [1]; [4],0.648
same,NF-kB SEAP reporter activity,RAW-Dual [1]; [5],0.368
same,NF-kB SEAP reporter activity,RAW-Dual [1]; [6],0.403
CC1Cc2c([nH]c3ccccc23)C(c2c(F)cc(/C=C/C(=O)O)cc2F)N1CC(C)(C)F (centres undefined),NF-kB SEAP reporter activity,RAW-Dual [2]; [7],0.715
same,NF-kB SEAP reporter activity,RAW-Dual [2]; [8],0.876
C#Cc1cccc(Nc2ncnc3cc(OCCOC)c(OCCO)cc23)c1.Cl (library stock concentration (final ~1000-fold dilution): 10 mM),NF-kB SEAP reporter activity,RAW-Dual [1]; agonist: LPS (TLR4) 0.1 ug/mL,4.71
same,NF-kB SEAP reporter activity,RAW-Dual [1]; [4],1.41
same,NF-kB SEAP reporter activity,RAW-Dual [1]; [5],1.02
same,NF-kB SEAP reporter activity,RAW-Dual [1]; [6],1.87
C#Cc1cccc(Nc2ncnc3cc(OCCOC)c(OCCO)cc23)c1.Cl,NF-kB SEAP reporter activity,RAW-Dual [2]; [7],1.81
same,NF-kB SEAP reporter activity,RAW-Dual [2]; [8],2.51
COc1cc(C=CC(=O)CC(=O)C=Cc2ccc(O)c(OC)c2)ccc1O,NF-kB SEAP reporter activity,"RAW-Dual [2]; library stock concentration (final ~1000-fold dilution): 100 mM, cytotoxicity flag (confluency mask): not cytotoxic, agonist: Imiquimod (TLR7) […]",0.155
same,NF-kB SEAP reporter activity,"RAW-Dual [2]; library stock concentration (final ~1000-fold dilution): 100 mM, cytotoxicity flag (confluency mask): not cytotoxic, agonist: MPLA (TLR4) […]",0.257
COc1cc(C=CC(=O)CC(=O)C=Cc2ccc(O)c(OC)c2)ccc1O (library stock concentration (final ~1000-fold dilution): 100 mM),NF-kB SEAP reporter activity,RAW-Dual [1]; agonist: LPS (TLR4) 0.1 ug/mL,0.303
same,NF-kB SEAP reporter activity,RAW-Dual [1]; [4],0.197
same,NF-kB SEAP reporter activity,RAW-Dual [1]; [5],0.13
same,NF-kB SEAP reporter activity,RAW-Dual [1]; [6],0.242
CCC(C)(C)C(=O)OC1CC(C)C=C2C=CC(C)C(CCC3CC(O)CC(=O)O3)C21 (centres undefined) (library stock concentration (final ~1000-fold dilution): 10 mM),NF-kB SEAP reporter activity,RAW-Dual [3]; agonist: LPS (TLR4) 0.1 ug/mL,2.35
same,NF-kB SEAP reporter activity,RAW-Dual [3]; [4],2.44
same,NF-kB SEAP reporter activity,RAW-Dual [3]; [5],2.12
same,NF-kB SEAP reporter activity,RAW-Dual [3]; [6],3.35
CCC(C)(C)C(=O)OC1CC(C)C=C2C=CC(C)C(CCC3CC(O)CC(=O)O3)C21 (centres undefined),NF-kB SEAP reporter activity,RAW-Dual [2]; [9],2.53
same,NF-kB SEAP reporter activity,RAW-Dual [2]; [10],1.95
COC(=O)CCc1ccc(OCC(O)CNC(C)C)cc1 (centres undefined),NF-kB SEAP reporter activity,RAW-Dual [2]; [7],0.811
same,NF-kB SEAP reporter activity,RAW-Dual [2]; [8],0.998
COC(=O)CCc1ccc(OCC(O)CNC(C)C)cc1 (centres undefined) (library stock concentration (final ~1000-fold dilution): 10 mM),NF-kB SEAP reporter activity,RAW-Dual [1]; agonist: LPS (TLR4) 0.1 ug/mL,1.61
same,NF-kB SEAP reporter activity,RAW-Dual [1]; [4],0.82
same,NF-kB SEAP reporter activity,RAW-Dual [1]; [5],0.942
same,NF-kB SEAP reporter activity,RAW-Dual [1]; [6],0.804
COc1cc(C(=O)NC2CCN(C)CC2)ccc1Nc1ncc2c(n1)N(C1CCCC1)CC(F)(F)C(=O)N2C,NF-kB SEAP reporter activity,RAW-Dual [2]; [10],2.85
COc1cc(C(=O)NC2CCN(C)CC2)ccc1Nc1ncc2c(n1)N(C1CCCC1)CC(F)(F)C(=O)N2C (library stock concentration (final ~1000-fold dilution): 10 mM),NF-kB SEAP reporter activity,RAW-Dual [3]; agonist: LPS (TLR4) 0.1 ug/mL,5.16
same,NF-kB SEAP reporter activity,RAW-Dual [3]; [6],3.04
O=C(NCc1cccc(O)c1)Nc1nc(-c2ccncc2)cs1,NF-kB SEAP reporter activity,RAW-Dual [2]; [7],1.3
same,NF-kB SEAP reporter activity,RAW-Dual [2]; [8],1.45
O=C(NCc1cccc(O)c1)Nc1nc(-c2ccncc2)cs1 (library stock concentration (final ~1000-fold dilution): 10 mM),NF-kB SEAP reporter activity,RAW-Dual [1]; agonist: LPS (TLR4) 0.1 ug/mL,1.01
same,NF-kB SEAP reporter activity,RAW-Dual [1]; [4],1.21
same,NF-kB SEAP reporter activity,RAW-Dual [1]; [5],1.24
same,NF-kB SEAP reporter activity,RAW-Dual [1]; [6],1.88
O=c1oc2cc(O)ccc2c2ccccc12,NF-kB SEAP reporter activity,RAW-Dual [2]; [7],0.97
same,NF-kB SEAP reporter activity,RAW-Dual [2]; [8],1.04
O=c1oc2cc(O)ccc2c2ccccc12 (library stock concentration (final ~1000-fold dilution): 10 mM),NF-kB SEAP reporter activity,RAW-Dual [1]; agonist: LPS (TLR4) 0.1 ug/mL,0.705
same,NF-kB SEAP reporter activity,RAW-Dual [1]; [4],0.974
same,NF-kB SEAP reporter activity,RAW-Dual [1]; [5],0.656
same,NF-kB SEAP reporter activity,RAW-Dual [1]; [6],0.986
CN1C(C(=O)Nc2ccccn2)=C(O)c2ccccc2S1(=O)=O (library stock concentration (final ~1000-fold dilution): 10 mM),NF-kB SEAP reporter activity,RAW-Dual [1]; agonist: LPS (TLR4) 0.1 ug/mL,1.29
same,NF-kB SEAP reporter activity,RAW-Dual [1]; [4],1.05
same,NF-kB SEAP reporter activity,RAW-Dual [1]; [5],1.06
same,NF-kB SEAP reporter activity,RAW-Dual [1]; [6],1.14
CN1C(C(=O)Nc2ccccn2)=C(O)c2ccccc2S1(=O)=O,NF-kB SEAP reporter activity,RAW-Dual [2]; [7],0.942
same,NF-kB SEAP reporter activity,RAW-Dual [2]; [8],1.02
COc1c(C)c2c(c(O)c1C/C=C(\C)CCC(=O)OCCN1CCOCC1)C(=O)OC2 (library stock concentration (final ~1000-fold dilution): 10 mM),NF-kB SEAP reporter activity,RAW-Dual [3]; agonist: LPS (TLR4) 0.1 ug/mL,0.479
same,NF-kB SEAP reporter activity,RAW-Dual [3]; [4],0.439
same,NF-kB SEAP reporter activity,RAW-Dual [3]; [5],0.176
same,NF-kB SEAP reporter activity,RAW-Dual [3]; [6],0.286
COc1c(C)c2c(c(O)c1C/C=C(\C)CCC(=O)OCCN1CCOCC1)C(=O)OC2,NF-kB SEAP reporter activity,RAW-Dual [2]; [9],1.24
same,NF-kB SEAP reporter activity,RAW-Dual [2]; [10],0.477
NCCS (library stock concentration (final ~1000-fold dilution): 10 mM),NF-kB SEAP reporter activity,RAW-Dual [1]; agonist: LPS (TLR4) 0.1 ug/mL,1.14
same,NF-kB SEAP reporter activity,RAW-Dual [1]; [4],1.13
same,NF-kB SEAP reporter activity,RAW-Dual [1]; [5],1.06
same,NF-kB SEAP reporter activity,RAW-Dual [1]; [6],0.908
NCCS,NF-kB SEAP reporter activity,RAW-Dual [2]; [7],1.02
same,NF-kB SEAP reporter activity,RAW-Dual [2]; [8],1.03
CC(Oc1ccc(S(C)(=O)=O)cc1C(=O)N1CCN(c2ncc(C(F)(F)F)cc2F)CC1)C(F)(F)F (centres undefined) (library stock concentration (final ~1000-fold dilution): 10 mM),NF-kB SEAP reporter activity,RAW-Dual [1]; agonist: LPS (TLR4) 0.1 ug/mL,0.836
same,NF-kB SEAP reporter activity,RAW-Dual [1]; [4],0.82
same,NF-kB SEAP reporter activity,RAW-Dual [1]; [5],0.703
same,NF-kB SEAP reporter activity,RAW-Dual [1]; [6],0.763
CC(Oc1ccc(S(C)(=O)=O)cc1C(=O)N1CCN(c2ncc(C(F)(F)F)cc2F)CC1)C(F)(F)F (centres undefined),NF-kB SEAP reporter activity,RAW-Dual [2]; [7],1.01
same,NF-kB SEAP reporter activity,RAW-Dual [2]; [8],0.944
COc1c(OC2OC(CO)C(O)C(O)C2O)cc2c(c1OC)-c1ccc(SC)c(=O)cc1C(NC(C)=O)CC2 (centres undefined),NF-kB SEAP reporter activity,RAW-Dual [2]; [8],1.03
COc1c(OC2OC(CO)C(O)C(O)C2O)cc2c(c1OC)-c1ccc(SC)c(=O)cc1C(NC(C)=O)CC2 (centres undefined) (library stock concentration (final ~1000-fold dilution): 10 mM),NF-kB SEAP reporter activity,RAW-Dual [1]; agonist: LPS (TLR4) 0.1 ug/mL,1.05
same,NF-kB SEAP reporter activity,RAW-Dual [1]; [4],0.973
same,NF-kB SEAP reporter activity,RAW-Dual [1]; [5],1.07
same,NF-kB SEAP reporter activity,RAW-Dual [1]; [6],1.03
Cc1nc(NC(=O)N2CCCC2C(N)=O)sc1-c1csc(C(C)(C)C)n1 (centres undefined) (library stock concentration (final ~1000-fold dilution): 10 mM),NF-kB SEAP reporter activity,RAW-Dual [1]; agonist: LPS (TLR4) 0.1 ug/mL,0.881
same,NF-kB SEAP reporter activity,RAW-Dual [1]; [4],1.41
same,NF-kB SEAP reporter activity,RAW-Dual [1]; [5],1.32
same,NF-kB SEAP reporter activity,RAW-Dual [1]; [6],1
